Experimental data from the supplement of paper PMC8728848.
The other results are listed elsewhere or left out.

Experiments:
Test in all cases: glycan array binding signal (z-score within array); higher = stronger binding
Conditions in all cases: glycan notation: IUPAC condensed, linker removed
Fuc(a1-2)Gal = biological target: Fuc(a1-2)Gal
Procedure, shortened: (§1)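 From the Consortium for Functional Glycomics database, 3228 arrays were curated, keeping only those whose protein sequence was available. Binding is given as a within-array Z-score averaged across arrays sharing a protein sequence and across linkers. Negative Z-scores can be read as non-binding.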

Fuc(a1-2)Gal(b1-3)GalNAc = biological target: Fuc(a1-2)Gal(b1-3)GalNAc
Procedure, shortened: as §1

[1] = biological target: Fuc(a1-2)Gal(b1-3)GalNAc(a1-3)[Fuc(a1-2)]Gal(b1-4)Glc
Procedure, shortened: as §1

[2] = biological target: Fuc(a1-2)Gal(b1-3)GalNAc(a1-3)[Fuc(a1-2)]Gal(b1-4)GlcNAc
Procedure, shortened: as §1

[3] = biological target: Fuc(a1-2)Gal(b1-3)GalNAc(b1-3)Gal
Procedure, shortened: as §1

[4] = biological target: Fuc(a1-2)Gal(b1-3)GalNAc(b1-3)Gal(a1-4)Gal(b1-4)Glc
Procedure, shortened: as §1

[5] = biological target: Fuc(a1-2)Gal(b1-3)GalNAc(b1-4)[Neu5Ac(a2-3)]Gal(b1-4)Glc
Procedure, shortened: as §1

Fuc(a1-2)Gal(b1-3)GlcNAc = biological target: Fuc(a1-2)Gal(b1-3)GlcNAc
Procedure, shortened: as §1

[6] = biological target: Fuc(a1-2)Gal(b1-3)GlcNAc(b1-2)Man(a1-3)[Fuc(a1-2)Gal(b1-3)GlcNAc(b1-2)Man(a1-6)]Man(b1-4)GlcNAc(b1-4)GlcNAc
Procedure, shortened: as §1

[7] = biological target: Fuc(a1-2)Gal(b1-3)GlcNAc(b1-2)Man(a1-3)[Fuc(a1-2)Gal(b1-3)GlcNAc(b1-2)Man(a1-6)]Man(b1-4)GlcNAc(b1-4)[Fuc(a1-6)]GlcNAc
Procedure, shortened: as §1

[8] = biological target: Fuc(a1-2)Gal(b1-3)GlcNAc(b1-3)Gal(b1-4)Glc
Procedure, shortened: as §1

[9] = biological target: Fuc(a1-2)Gal(b1-3)GlcNAc(b1-3)GalNAc
Procedure, shortened: as §1

[10] = biological target: Fuc(a1-2)Gal(b1-3)GlcNAc(b1-3)[Fuc(a1-2)Gal(b1-3)GlcNAc(b1-6)]GalNAc
Procedure, shortened: as §1

[11] = biological target: Fuc(a1-2)Gal(b1-3)GlcNAc(b1-3)[Fuc(a1-3)[Gal(b1-4)]GlcNAc(b1-6)]Gal(b1-4)Glc
Procedure, shortened: as §1

[12] = biological target: Fuc(a1-2)Gal(b1-3)GlcNAc(b1-3)[Gal(b1-4)GlcNAc(b1-6)]Gal(b1-4)Glc
Procedure, shortened: as §1

[13] = biological target: Fuc(a1-2)Gal(b1-3)GlcNAc(b1-3)[Neu5Ac(a2-6)Gal(b1-4)GlcNAc(b1-6)]Gal(b1-4)Glc
Procedure, shortened: as §1

[14] = biological target: Fuc(a1-2)Gal(b1-3)GlcNAc6S
Procedure, shortened: as §1

[15] = biological target: Fuc(a1-2)Gal(b1-3)[Fuc(a1-4)]GlcNAc
Procedure, shortened: as §1

[16] = biological target: Fuc(a1-2)Gal(b1-3)[Fuc(a1-4)]GlcNAc(b1-2)Man(a1-3)[Fuc(a1-2)Gal(b1-3)[Fuc(a1-4)]GlcNAc(b1-2)Man(a1-6)]Man(b1-4)GlcNAc(b1-4)GlcNAc
Procedure, shortened: as §1

[17] = biological target: Fuc(a1-2)Gal(b1-3)[Fuc(a1-4)]GlcNAc(b1-2)Man(a1-6)[Fuc(a1-2)Gal(b1-3)[Fuc(a1-4)]GlcNAc(b1-2)Man(a1-3)]Man(b1-4)GlcNAc(b1-4)[Fuc(a1-6)]GlcNAc
Procedure, shortened: as §1

[18] = biological target: Fuc(a1-2)Gal(b1-3)[Fuc(a1-4)]GlcNAc(b1-3)[Fuc(a1-3)[Gal(b1-4)]GlcNAc(b1-6)]Gal(b1-4)Glc
Procedure, shortened: as §1

[19] = biological target: Fuc(a1-2)Gal(b1-3)[Fuc(a1-4)]GlcNAc(b1-3)[Gal(b1-4)GlcNAc(b1-6)]Gal(b1-4)Glc
Procedure, shortened: as §1

Fuc(a1-2)Gal(b1-4)Glc = biological target: Fuc(a1-2)Gal(b1-4)Glc
Procedure, shortened: as §1

Fuc(a1-2)Gal(b1-4)Glc6S = biological target: Fuc(a1-2)Gal(b1-4)Glc6S
Procedure, shortened: as §1

Fuc(a1-2)Gal(b1-4)GlcNAc = biological target: Fuc(a1-2)Gal(b1-4)GlcNAc
Procedure, shortened: as §1

[20] = biological target: Fuc(a1-2)Gal(b1-4)GlcNAc(b1-2)Man
Procedure, shortened: as §1

[21] = biological target: Fuc(a1-2)Gal(b1-4)GlcNAc(b1-2)Man(a1-3)[Fuc(a1-2)Gal(b1-4)GlcNAc(b1-2)Man(a1-6)]Man(b1-4)GlcNAc(b1-4)GlcNAc
Procedure, shortened: as §1

[22] = biological target: Fuc(a1-2)Gal(b1-4)GlcNAc(b1-2)Man(a1-3)[Fuc(a1-2)Gal(b1-4)GlcNAc(b1-2)Man(a1-6)]Man(b1-4)GlcNAc(b1-4)[Fuc(a1-6)]GlcNAc
Procedure, shortened: as §1

[23] = biological target: Fuc(a1-2)Gal(b1-4)GlcNAc(b1-2)[Fuc(a1-2)Gal(b1-4)GlcNAc(b1-4)]Man(a1-3)[Fuc(a1-2)Gal(b1-4)GlcNAc(b1-2)Man(a1-6)]Man(b1-4)GlcNAc(b1-4)GlcNAc
Procedure, shortened: as §1

[24] = biological target: Fuc(a1-2)Gal(b1-4)GlcNAc(b1-3)Gal(b1-4)GlcNAc
Procedure, shortened: as §1

B1: CvGal1 (Crassostrea virginica), A7Y0I5 (protein)
chain: MTYQISKISQPFTSYIPNGLHIGKHLLLRGRVSYGTEAFAINLQQNPEPCNGEVAFHFNPRPGEQQCVRNSFDGGSWMDEERDQPHFPFDEGRSFTLRIEVAEEGFRTYVNGKPYVNFSHRLDLGNVHYLYLTEGAEFYDISYQDRYTLPYKSEIPQQMNVGKAVRIRGASQDNDGFSVNFACDPDNENCAFHFNPRPNEGVVVRNANLGGWGDEERDYEAEFPFHPYNYFDAMFICTDDKYLVHVNDKYFTEFNHRGGVDASSFFNIVGNLDIQDVEYFEPLEDDFVKTIPSGLVKGDVLIFRGFMKPGGDTFSINFMNGYSVEDDIAFHLNPRVGEGQVVMNCCMGGAWGDEEREDIPSPLADREPFEVKVVVKKNKFKVYVNGKKCMKFAARGNLEDIKGVNIKGEAYVYEVKLERKLEDSWEYLPGGFRVGGWVVVQAIPKKGSEGFAINFRTGSDEDSDIAFHFNPRLQENCTIRNSCAGGAWGGEERDQPDFPFEKKDTCEIAIQAQPDRFVTYVNGKRYIEFNHRLPLESITCVELTGRADFFEPKFF
glycan array binding signal (z-score) (Fuc(a1-2)Gal): -0.242 | glycan array binding signal (z-score) (Fuc(a1-2)Gal(b1-3)GalNAc): -0.291 | glycan array binding signal (z-score) [1]: 3 | glycan array binding signal (z-score) [2]: 6.13 | glycan array binding signal (z-score) [3]: -0.263 | glycan array binding signal (z-score) [4]: -0.242 | glycan array binding signal (z-score) [5]: -0.259 | glycan array binding signal (z-score) (Fuc(a1-2)Gal(b1-3)GlcNAc): -0.084 | glycan array binding signal (z-score) [6]: 0.602 | glycan array binding signal (z-score) [7]: -0.288 | glycan array binding signal (z-score) [8]: 0.324 | glycan array binding signal (z-score) [9]: -0.244 | glycan array binding signal (z-score) [10]: -0.258 | glycan array binding signal (z-score) [11]: 2.22 | glycan array binding signal (z-score) [12]: 1.11 | glycan array binding signal (z-score) [13]: -0.181 | glycan array binding signal (z-score) [14]: -0.252 | glycan array binding signal (z-score) [15]: -0.22 | glycan array binding signal (z-score) [16]: -0.188 | glycan array binding signal (z-score) [17]: -0.197 | glycan array binding signal (z-score) [18]: -0.21 | glycan array binding signal (z-score) [19]: -0.256 | glycan array binding signal (z-score) (Fuc(a1-2)Gal(b1-4)Glc): -0.245 | glycan array binding signal (z-score) (Fuc(a1-2)Gal(b1-4)Glc6S): -0.243 | glycan array binding signal (z-score) (Fuc(a1-2)Gal(b1-4)GlcNAc): -0.185 | glycan array binding signal (z-score) [20]: -0.262 | glycan array binding signal (z-score) [21]: 0.157 | glycan array binding signal (z-score) [22]: -0.053 | glycan array binding signal (z-score) [23]: 0.459 | glycan array binding signal (z-score) [24]: 0.07
